Results: PubChem BioAssay AID686971 (National Center for Advancing Translational Sciences (NCATS), 2013)
Screen size: about 360,000 compounds; about 7,500 (2.1%) were called active. Inconclusive means that the source gave no clear call. Such entries were picked first, then a sample of the others. Calls come from the whole dose curve; as a rule, active = well fitted cell-killing curve with a large enough effect; inconclusive = small, poorly fitted or top-dose-only effect, or effect the other way, or another doubt; inactive = no such curve, though single readings can be large or run the other way. Potencies of inconclusive entries are left out as doubtful fits.

Experiment: qHTS for induction of synthetic lethality in tumor cells producing 2HG: qHTS for the HT-1080-IDH1KD cell line;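 for activity, negative = toxicity: 0% = DMSO wells and -100% = cell-free medium wells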
Settings: HT-1080 IDH1 knockdown viability, ATP luminescence, 48 h; activity, negative = toxicity: at 46.1 µM (top of the series) unless noted
In short: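 Cytotoxicity counter-line: IDH1KD HT-1080, 48 h, CellTiter-Glo. Curves classed by r2, magnitude and activity.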
Potency is the fitted concentration of half-maximal effect; tags give direction and shape of the fitted curve.

Compound	Potency	activity, negative = toxicity
CCC(NC(=O)CCc1c(C)c2cc3c(C)c(C)oc3cc2oc1=O)C(=O)N[C@@H](Cc1ccccc1)C(=O)O (stereo not given in full)	inconclusive [cytotoxic, single point]	–
C=CCNc1nc(N2CCCCC2)c(C#N)c2c1CN(Cc1ccccc1)CC2	inconclusive [cytotoxic, single point]	–
c1ccc(CCOn2ccnc2)cc1	–	inactive: 7.34%
Cc1ccc(NC(=O)N2CCC(c3nc4c(nnn4Cc4cccc(Cl)c4)c(=O)[nH]3)CC2)cc1	inconclusive [cytotoxic, single point]	–
COc1cccc(C(O)c2nc(-c3cccc(C(C)C)c3)cs2)c1 (stereo not given)	inconclusive [cytotoxic, single point]	–
CC1CC(C)CN(S(=O)(=O)c2ccc(C(=O)Nc3nnc(-c4cccs4)o3)cc2)C1 (stereo not given)	inconclusive [cytotoxic, full curve]	–
Cc1sc2nc(CN3CCCC3)nc(N3CCN(S(=O)(=O)c4cccs4)CC3)c2c1C	active: 16.4 µM	–
Cc1cc(C)n(-c2ccc(C(=O)OCC(=O)N3CCN(c4ccccc4)CC3)cc2)n1	–	inactive: 9.88%
Cc1nc2ccc([N+](=O)[O-])cc2c(=O)n1Cc1ccc([N+](=O)[O-])cc1	–	inactive: -7.43%
COc1cccc(N2CCN(Cc3ccco3)CC2)c1	–	inconclusive: 30.3%
CCCCCc1cc(=O)oc2c(C(CCN3CCCCC3)c3cc(OC)c(OC)c(OC)c3)c(OC)cc(OC)c12 (stereo not given)	inconclusive [cytotoxic, single point]	–
CCC(=O)Nc1ccc2oc(-c3cccc(C)c3)nc2c1	inconclusive [cytotoxic, single point]	–
NCCc1nnc(SCC(=O)Nc2ccc(Br)cc2)o1	inconclusive [cytotoxic, partial curve]	–
COc1cccc(/C=N/Nc2c(Cl)cncc2Cl)c1O	inconclusive [cytotoxic, single point]	–
Cc1ccn2c(C(=O)CSc3ccc(Cl)cc3)c(C)nc2c1	–	inactive: -3.33%
CCOC(=O)N1CCN(S(=O)(=O)N2CCCC(C(=O)NCc3ccc(C)cc3)C2)CC1 (stereo not given)	–	inactive: 7.53%
CCOC(=O)c1c(OCC)[nH]c2c1cc(O)c1ccccc12	inconclusive [cytotoxic, single point]	–
CCCc1nc2ccc(C(=O)OC)cn2c1Cc1cccc(F)c1	inconclusive [cytotoxic, single point]	–
CN1CCN(CCC(=O)N2c3ccccc3Sc3ccc(Cl)cc32)CC1	–	inactive: -24.9%
O=C(NCCNc1ccc(Cl)cc1[N+](=O)[O-])c1cccnc1	inconclusive [cytotoxic, single point]	–
